{"source": "the supplement of paper PMC3334620", "note": "In all, about 33,000 sequences were measured (“E-score (-0.5 to 0.5)”: median about -0.041, highest 2% from about 0.37 on). The list shows a part of the results."}
{"target": "T1, Ecm22 (UniProt Q05958)", "T1 sequence": "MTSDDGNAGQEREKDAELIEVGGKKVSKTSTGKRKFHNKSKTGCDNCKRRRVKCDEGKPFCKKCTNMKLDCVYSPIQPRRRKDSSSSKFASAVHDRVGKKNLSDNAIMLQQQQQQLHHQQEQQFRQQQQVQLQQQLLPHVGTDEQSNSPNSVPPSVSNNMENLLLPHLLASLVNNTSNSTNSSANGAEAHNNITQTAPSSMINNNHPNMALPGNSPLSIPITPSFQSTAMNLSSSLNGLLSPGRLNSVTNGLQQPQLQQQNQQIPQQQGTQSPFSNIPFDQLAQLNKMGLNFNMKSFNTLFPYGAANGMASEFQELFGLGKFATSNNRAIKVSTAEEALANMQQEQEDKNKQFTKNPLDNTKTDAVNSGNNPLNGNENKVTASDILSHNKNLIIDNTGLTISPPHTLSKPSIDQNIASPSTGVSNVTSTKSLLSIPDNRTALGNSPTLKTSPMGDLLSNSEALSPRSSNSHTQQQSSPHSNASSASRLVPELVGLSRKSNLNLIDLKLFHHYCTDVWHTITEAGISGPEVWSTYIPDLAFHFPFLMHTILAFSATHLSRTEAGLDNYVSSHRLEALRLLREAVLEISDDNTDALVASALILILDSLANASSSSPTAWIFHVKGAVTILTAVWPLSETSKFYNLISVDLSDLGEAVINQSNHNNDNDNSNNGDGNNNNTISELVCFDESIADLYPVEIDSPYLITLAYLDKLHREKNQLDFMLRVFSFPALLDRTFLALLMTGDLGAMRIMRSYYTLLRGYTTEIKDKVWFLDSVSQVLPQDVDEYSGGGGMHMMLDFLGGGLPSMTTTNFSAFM", "assay": "PBM E-score (8-mer binding enrichment) (E-score (-0.5 to 0.5)); higher = stronger / more preferred TF binding; most listed sequences are background and not binding sites", "settings": "protein concentration: 200 nM; construct: GST-full length", "protocol": "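Universal 'all 10-mer' protein binding microarrays (Agilent AMADID 015681) probed with GST-tagged S. cerevisiae TFs (full-length or DBD) made by in vitro transcription/translation (PURExpress), about 100-200 nM. Bound TF was detected with fluorescent anti-GST. Each ungapped 8-mer (which stands for itself and its reverse complement) is scored by the PBM enrichment score (E-score), a modified Wilcoxon-Mann-Whitney statistic from -0.5 to +0.5, computed with the Universal PBM Analysis Suite. Scale: above 0.35 generally sequence-specific binding.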"}
{"sequence": "AACTGTTC", "PBM E-score": -0.177}
{"sequence": "CCCCCTAG", "PBM E-score": -0.406}
{"sequence": "AATCCAGC", "PBM E-score": -0.174}
{"sequence": "CAATTCGG", "PBM E-score": 0.0789}
{"sequence": "CTGGAGAA", "PBM E-score": -0.17}
{"sequence": "ACTCATCT", "PBM E-score": -0.16}
{"sequence": "GATACCCC", "PBM E-score": -0.104}
{"sequence": "AGCCCCAA", "PBM E-score": -0.236}
{"sequence": "CCTATGTC", "PBM E-score": -0.0471}
{"sequence": "CCACACTA", "PBM E-score": -0.0747}
{"sequence": "GCACGTCA", "PBM E-score": -0.236}
{"sequence": "CCTACAAC", "PBM E-score": -0.0853}
{"sequence": "ATCACGTA", "PBM E-score": 0.146}
{"sequence": "GCCACACC", "PBM E-score": -0.142}
{"sequence": "ATTTGTAG", "PBM E-score": -0.154}
{"sequence": "ATCTCAGG", "PBM E-score": -0.205}
{"sequence": "AGAGCGAT", "PBM E-score": 0.0348}
{"sequence": "AGCCAACA", "PBM E-score": -0.14}
{"sequence": "ACCAAAGC", "PBM E-score": 0.023}
{"sequence": "ACGCGTGC", "PBM E-score": -0.012}
{"sequence": "AGGGTGGG", "PBM E-score": -0.138}
{"sequence": "CATGTTAG", "PBM E-score": -0.188}
{"sequence": "ATGATTTG", "PBM E-score": -0.152}
{"sequence": "AGCCGGCA", "PBM E-score": -0.122}
{"sequence": "AAGCGCCT", "PBM E-score": -0.178}
{"sequence": "GAGGGCCC", "PBM E-score": -0.157}
{"sequence": "CACTTTGA", "PBM E-score": -0.243}
{"sequence": "GCAATGTA", "PBM E-score": 0.0905}
{"sequence": "ACCCCTGC", "PBM E-score": -0.385}
{"sequence": "CGAATTTA", "PBM E-score": 0.195}
{"sequence": "TAGGCATA", "PBM E-score": -0.199}
{"sequence": "GCATTGGC", "PBM E-score": -0.25}
{"sequence": "CGGGAGGC", "PBM E-score": -0.194}
{"sequence": "ATTGGATC", "PBM E-score": -0.153}
{"sequence": "ACTAATCC", "PBM E-score": 0.0416}
{"sequence": "TGGTACAA", "PBM E-score": -0.167}
{"sequence": "TATTATGA", "PBM E-score": 0.121}
{"sequence": "GCCTGCCC", "PBM E-score": -0.174}
{"sequence": "AACCGCGG", "PBM E-score": 0.145}
{"sequence": "CTGAGTTA", "PBM E-score": -0.234}
{"sequence": "ACAGAAAT", "PBM E-score": 0.0671}
{"sequence": "TCGAAGAA", "PBM E-score": -0.0464}
{"sequence": "CCCAGTAA", "PBM E-score": -0.206}
{"sequence": "ACCTGTAA", "PBM E-score": 0.17}
{"sequence": "CTTTATGC", "PBM E-score": -0.0617}
{"sequence": "GCGTTAAC", "PBM E-score": 0.154}
{"sequence": "TTGTAAAA", "PBM E-score": 0.0509}
{"sequence": "ACATCGAG", "PBM E-score": 0.0646}
{"sequence": "CCCTCCAA", "PBM E-score": -0.206}
{"sequence": "AAGTGCAT", "PBM E-score": -0.185}
{"sequence": "ACTATCTG", "PBM E-score": -0.146}
{"sequence": "AGGCTCAT", "PBM E-score": -0.178}
{"sequence": "ACCAGAAA", "PBM E-score": -0.0057}
{"sequence": "CGAGATAG", "PBM E-score": 0.0664}
{"sequence": "CTTAAAAG", "PBM E-score": -0.331}
{"sequence": "TAATCCGA", "PBM E-score": 0.112}
{"sequence": "AAGTTAGA", "PBM E-score": -0.21}
{"sequence": "ACAAGGAG", "PBM E-score": 0.0186}
{"sequence": "ATTCGCAG", "PBM E-score": -0.00814}
{"sequence": "ACAAGATG", "PBM E-score": -0.158}
{"sequence": "AAATTGGC", "PBM E-score": -0.0614}
{"sequence": "AACGGCTG", "PBM E-score": 0.114}
{"sequence": "CCATACAC", "PBM E-score": 0.00013}
{"sequence": "AGCGCGAG", "PBM E-score": 0.0786}
{"sequence": "AAGCCACG", "PBM E-score": 0.0177}
{"sequence": "ACTGGATA", "PBM E-score": 0.00817}
{"sequence": "CTTGCTAC", "PBM E-score": 0.0718}
{"sequence": "ACACTTAA", "PBM E-score": 0.035}
{"sequence": "AACCCCGT", "PBM E-score": 0.0296}
{"sequence": "ATGTAGGG", "PBM E-score": -0.259}
{"sequence": "ATTAATCC", "PBM E-score": 0.0266}
{"sequence": "CCCACGCA", "PBM E-score": 0.0382}
{"sequence": "TCTGCTAA", "PBM E-score": -0.086}
{"sequence": "ACGTGGTC", "PBM E-score": -0.0786}
{"sequence": "AGTTAATG", "PBM E-score": -0.0767}
{"sequence": "GATACCAA", "PBM E-score": 0.0918}
{"sequence": "CTTGACGA", "PBM E-score": 0.0482}
{"sequence": "AATAATAG", "PBM E-score": -0.13}
{"sequence": "GCCTACGC", "PBM E-score": -0.139}
{"sequence": "CTCGCAAC", "PBM E-score": 0.18}
{"sequence": "CATCGCGC", "PBM E-score": 0.184}
{"sequence": "AAAGTATG", "PBM E-score": -0.0997}
{"sequence": "CAAAAAAG", "PBM E-score": -0.224}
{"sequence": "ACGTGGTA", "PBM E-score": 0.166}
{"sequence": "AGCGAATC", "PBM E-score": 0.244}
{"sequence": "GATACTCC", "PBM E-score": -0.0275}
